Experimental data taken from the supplement of paper PMC4166925.
± gives the standard deviation of the averaged measurements. Whole data set: some 33,000 sequences, median “E-score (dimensionless, -0.5 to 0.5)” near -0.046, cut for the highest 2% near 0.36. Some of the results follow.

Test system: T1, SpTbr T-box DNA-binding domain (GST fusion)
T1 sequence: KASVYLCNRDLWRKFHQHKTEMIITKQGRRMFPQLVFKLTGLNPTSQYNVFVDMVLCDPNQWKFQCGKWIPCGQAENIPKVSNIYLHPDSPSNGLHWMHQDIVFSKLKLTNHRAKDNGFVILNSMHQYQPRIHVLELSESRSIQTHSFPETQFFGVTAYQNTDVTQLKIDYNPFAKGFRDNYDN
Assay: PBM E-score of 8-mer (E-score (dimensionless, -0.5 to 0.5)); Tbr is Tbrain of the sea star Patiria miniata (Pm) or the sea urchin Strongylocentrotus purpuratus (Sp); higher = stronger binding preference; most listed sequences are background and not binding sites
Conditions: the construct has about 5 more residues each side
Description: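 Universal protein-binding microarray (Agilent AMADID 016060, 60-bp probes with a 35-bp variable region) incubated with 200 nM GST-fused Strongylocentrotus purpuratus Tbr T-box DNA-binding domain (residues 362-554) in PBS pH 7.5. Scored for every ungapped 8-mer (given with its reverse complement) as E-score (range -0.5 to 0.5; >0.45 counts as bound) and Z-score of median probe intensity. Two replicate arrays (datasets 1 and 2).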
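Also: protein at 200 nM in PBS on universal double-stranded arrays.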

Row | Sequence | PBM E-score of 8-mer
1 | CAACAGAG | -0.147 ± 0.059
2 | GCGAAATA | 0.227 ± 0.096
3 | CGCGGTGA | 0.0943 ± 0.12
4 | GAAGCAAC | 0.0738 ± 0.044
5 | ACCCTTAT | -0.0625 ± 0.014
6 | CCCCCGGA | -0.275 ± 0.0072
7 | AATCGCGC | 0.332 ± 0.01
8 | AAAATTCG | -0.169 ± 0.082
9 | AGCTCACC | 0.00145 ± 0.071
10 | AGTCCGAG | -0.0479 ± 0.0029
11 | ACAACCAT | 0.0868 ± 0.041
12 | AGCACTGG | -0.0357 ± 0.007
13 | CCACTGAG | -0.0982 ± 0.017
14 | GATCCAAA | -0.0599 ± 0.059
15 | TACTACTA | -0.272 ± 0.013
16 | ACCGCATC | 0.0471 ± 0.066
17 | CGCGATTC | 0.204 ± 0.046
18 | AGATCACC | -0.0429 ± 0.029
19 | ACACTCGT | 0.279 ± 0.022
20 | CTCATCTA | -0.272 ± 0.0055
21 | TACCGGGA | -0.208 ± 0.0062
22 | AGTACAGA | -0.0306 ± 0.028

Row | Sequence | PBM E-score of 8-mer
23 | AACATTAA | -0.152 ± 0.016
24 | CGAATCAG | -0.0568 ± 0.05
25 | ATACCTAG | -0.194 ± 0.018
26 | AAGAGGAG | -0.00225 ± 0.017
27 | AGTGTGTA | 0.229 ± 0.018
28 | GAGTTATC | 0.0341 ± 0.075
29 | CACCTTTA | 0.414 ± 0.0042
30 | GATTCAAA | -0.142 ± 0.062
31 | CATCCCAC | 0.158 ± 0.072
32 | ACTAATGG | 0.0172 ± 0.058
33 | GATAGTGC | 0.0259 ± 0.04
34 | CGGCGCCA | 0.14 ± 0.024
35 | ACGCCCCG | 0.184 ± 0.052
36 | CCTGACAC | 0.427 ± 0.01
37 | CAGAGCCG | -0.0628 ± 0.02
38 | AATGTCCA | -0.218 ± 0.051
39 | CAAATTCA | 0.215 ± 0.018
40 | AACAAGCT | -0.156 ± 0.055
41 | GTTTGGGA | -0.091 ± 0.036
42 | CCACCCGC | 0.105 ± 0.028
43 | ACACCACT | 0.269 ± 0.02
44 | GTAATTGA | 0.0382 ± 0.016

Row | Sequence | PBM E-score of 8-mer
45 | GATTTACC | -0.104 ± 0.03
46 | CTAGCTAC | 0.0263 ± 0.029
47 | ATGGCAAT | 0.0133 ± 0.11
48 | GACCGGGA | -0.171 ± 0.049
49 | GCATAGTA | -0.142 ± 0.068
50 | AAGACGTG | 0.092 ± 0.057
51 | AGATTGAT | -0.186 ± 0.031
52 | GCCGTCTA | -0.297 ± 0.041
53 | CATGTTGA | 0.122 ± 0.0077
54 | CCATGCTA | -0.141 ± 0.0031
55 | ATCTGTCG | 0.236 ± 0.012
56 | ATCCCTTA | -0.196 ± 0.0044
57 | TCTTCAAA | -0.0718 ± 0.061
58 | CACACCTG | 0.479 ± 0.0072
59 | ATAATGAG | -0.0254 ± 0.02
60 | GCCTACCA | 0.00846 ± 0.028
61 | AGGCACGG | -0.0638 ± 0.014
62 | CTCAGTTC | -0.00872 ± 0.076
63 | AAACTGAT | 0.00505 ± 0.0057
64 | AAGTCTTA | -0.0637 ± 0.085
65 | GTAACAAC | 0.152 ± 0.039
66 | GGCGTGCA | 0.0836 ± 0.055

Row | Sequence | PBM E-score of 8-mer
67 | GCTAACAA | 0.293 ± 0.03
68 | GTGCATGA | -0.124 ± 0.085
69 | ACCATAGA | -0.121 ± 0.04
70 | CGTCGATC | 0.0266 ± 0.0026
71 | CTCATCGC | 0.0778 ± 0.036
72 | CTAACAAA | 0.1482 ± 0.00042
73 | TACACACA | 0.255 ± 0.029
74 | AACCAGTA | -0.0434 ± 0.0093
75 | CGATGTTA | -0.0807 ± 0.0019
76 | CCTGTGCG | 0.125 ± 0.025
77 | CAACTTAA | 0.0683 ± 0.1
78 | AGTAGAAA | -0.131 ± 0.051
79 | CACTTACC | 0.249 ± 0.049
80 | CGGGGAAA | -0.111 ± 0.013
81 | TGCCATAA | -0.00072 ± 0.032
82 | GAAGTAAC | -0.0552 ± 0.026
83 | TACCCTAA | -0.0552 ± 0.034
84 | GTGCAACA | 0.15 ± 0.0074
85 | GTGTGATA | 0.459 ± 0.0047
86 | AGGTTTAT | -0.113 ± 0.038
